Test results reported in PubChem BioAssay AID463173 (ICCB-Longwood Screening Facility, Harvard Medical School, 2010).
The whole screen tested about 52,000 compounds, of which about 1,700 (3.3%) were called active. Cut-off read from the data, not from the text of the source: active = survival mostly below about 52% (no sharp cut-off); inactive = mostly above about 56%. Some of the results follow.

Each compound was assayed on Wild type (assay: growth inhibition of S. aureus wild type versus tarO mutant, primary screen, teichoic acid synthesis inhibitors, RN4220, OD600 (AID 463173)). Conditions: S. aureus RN4220 wild type/DeltatarO growth, OD600, 18 h, stronger effect = lower value, screened at 18.75 µg/mL (by protocol).
In the case of `O=S(=O)(c1ccc(Br)cc1)c1nnn2c1nc(NC1CCCCCC1)c1sccc12`, the survival is reported as inactive: 97%. `CCOc1cc(S(=O)(=O)N2CCC(c3nc4ccccc4s3)CC2)c(OCC)cc1S(=O)(=O)N1CCOCC1` was tested, and the survival was inactive: 109%. For `Cc1ccc(-n2nc3ccc(NC(=O)c4cc5ccccc5o4)cc3n2)cc1`, the survival was inactive: 80%. With `Cn1c(=O)c2sccc2n2c(CCC(=O)N3CCN(c4ccccc4)CC3)nnc12` the survival was inactive: 144%. In the case of `COC(=O)C(Sc1nc(C)cc(C)c1C#N)c1ccccc1` (configuration not stated), the survival is reported as inactive: 110%. `C1CCC(N2CCC(N3CCCCC3)CC2)CC1` was tested, and the survival was inactive: 105%. With `CCc1ccc(NC(=O)N2CCN(Cc3cc(=O)n4nc(-c5ccccc5OC)sc4n3)CC2)cc1` the survival was inactive: 74%. With `CCOC(=O)c1cccc(NC(=O)NCCc2c(C)nn(C)c2C)c1` the survival was inactive: 63%. With `Cc1cccc(C)c1OCCCCn1c(C2CC(=O)N(c3ccc(F)cc3)C2)nc2ccccc21` (configuration not stated) the survival was inactive: 34%. For `COC(=O)c1ccccc1NC(=O)c1noc2c1CSc1ccccc1-2`, the survival was inactive: 83%. With `COc1ccc2nc(NC(=O)c3ccc(S(=O)(=O)N4CCC(C)CC4)cc3)sc2c1` the survival was inactive: 81%. In the case of `O=S(=O)(NCC(c1ccco1)N1CCN(c2ccc(F)cc2)CC1)c1ccccc1` (configuration not stated), the survival is reported as inactive: 55%. In the case of `CCn1c(=N)c(C(=O)NCc2cccnc2)cc2c(=O)n3cc(C)ccc3nc21`, the survival is reported as inactive: 76%. With `COC(=O)c1cc2occc2n1CC(=O)Nc1cccc(SC)c1` the survival was inactive: 88%. For `COc1ccc(-c2cc(C(=O)Nc3cc(C)ccc3O)no2)cc1OC`, the survival was inactive: 85%. For `COc1ccc(-c2nc(CSCC(=O)NCCc3ccc(C)cc3)c(C)o2)cc1OC`, the survival was inactive: 72%. `O=C(Cn1c(=O)sc2ccccc21)Nc1nc2c(s1)CCCC2` was tested, and the survival was inactive: 125%. With `CCN(CC)CCCNC(=O)c1c(C)oc2ncnc(N3CCOCC3)c12` the survival was inactive: 136%. With `CCCCN(Cc1ccccc1)S(=O)(=O)c1ccc2c(c1)CC(C)N2C(=O)CC` (configuration not stated) the survival was inactive: 96%. For `COc1ccccc1Cc1nc2ccccc2nc1SCC(=O)NCCc1ccccc1`, the survival was inactive: 74%. With `Cc1c(C(=O)NCc2ccc(Cl)cc2)sc2nc3n(c(=O)c12)CCCC3` the survival was inactive: 107%. For `CCOc1ccc(CNC(=O)c2ccc(NC(=O)c3nsc4ccccc34)cc2)cc1`, the survival was inactive: 71%. With `CCS(=O)(=O)c1ccccc1C(=O)N(Cc1cccnc1)c1nc2cc(C)c(C)cc2s1` the survival was inactive: 118%. For `CCOC(=O)Cn1cc2c(c1-c1ccc(Cl)cc1)c(=O)n(C)c(=O)n2C`, the survival was inactive: 85%. With `CCc1noc2nc(C)n(CC(=O)O)c(=O)c12` the survival was inactive: 89%. With `CN(C(=O)CSc1nc2ccccc2n1CC(=O)NCc1ccc(F)cc1)c1ccc(F)cc1` the survival was inactive: 121%. In the case of `c1ccc(C(c2cccs2)c2c[nH]c3ccccc23)cc1` (configuration not stated), the survival is reported as inactive: 17%. `Cc1cccc(-n2c(=O)c3c(c4cc(C)ccc4n3C)n(CC(=O)Nc3ccccc3C(F)(F)F)c2=O)c1` was tested, and the survival was inactive: 84%. In the case of `Cc1ccc(CNc2ncnc3c2c(-c2ccccc2)cn3-c2cccc(Cl)c2)cc1`, the survival is reported as inactive: 69%. With `COc1ccc(-c2nc3n(n2)C(c2ccccc2F)C(C(=O)Nc2cccnc2)=C(C)N3)cc1OC` (configuration not stated) the survival was inactive: 85%. For `Cc1ccc(-c2noc(CN(C3CCCCC3)S(=O)(=O)c3ccc(Cl)cc3)n2)cc1`, the survival was inactive: 86%. `CCCCN(C(=O)c1cccc(S(=O)(=O)N2CCCCC2)c1)C1CCS(=O)(=O)C1` (configuration not stated) was tested, and the survival was inactive: 127%. For `COc1ccc(C2CC(=O)c3c([nH]c(C(=O)OC4CCC(C)CC4)c3C)C2)cc1OC` (configuration not stated), the survival was inactive: 79%. In the case of `O=C(Nc1ccc(F)c(Cl)c1)N1CCN2CCCCC2C1` (configuration not stated), the survival is reported as inactive: 66%. For `COCCCNC(=O)c1sc2ncccc2c1-n1cccc1`, the survival was inactive: 78%. For `CCc1cccc2sc(N3CCN(C(=O)C4CC4)CC3)nc12`, the survival was inactive: 87%. In the case of `Cc1cc(NC(c2nnc(-c3ccccc3)o2)c2ccccc2F)ccc1Br` (configuration not stated), the survival is reported as active: 9%. In the case of `CCN(CC)c1ccc(-c2nc(-c3ccncc3)no2)cc1[N+](=O)[O-]`, the survival is reported as inactive: 84%. `Cc1ccc2cccc(NC(=O)c3cccc4ccccc34)c2n1` was tested, and the survival was active: -10%. With `COc1ccc(NCc2ccccc2-c2nnc(-c3ccccc3)o2)cc1Cl` the survival was inactive: 90%. For `Cc1sc2nc(SCC(=O)N(CCO)CCO)n(C3CCCCC3)c(=O)c2c1C`, the survival was inactive: 106%. In the case of `CC(C)(C)OC(=O)N1CCC(c2c(C(=O)N3CCc4ccccc4C3)cnn2-c2ccc(Cl)cc2)CC1`, the survival is reported as inactive: 81%. In the case of `CCOc1ccccc1C(=O)N(Cc1ccc(N(C)C)cc1)CC1CCCO1` (configuration not stated), the survival is reported as inactive: 86%. For `CCS(=O)(=O)Nc1cc(-c2cn3ccc(C)cc3n2)ccc1C`, the survival was inactive: 78%. With `CCN1C(=O)c2cccc3c(S(=O)(=O)Nc4ccc(O)c(C(=O)O)c4)ccc1c23` the survival was inactive: 76%. With `Cc1cc(C)cc(C(=O)N2CC(=O)Nc3ccc(C)cc3C2c2ccccc2)c1` (configuration not stated) the survival was inactive: 74%. For `CCCCNC(=O)CSc1nc2cc3c(cc2c(=O)n1CCCC(=O)NCc1ccc2c(c1)OCO2)OCO3`, the survival was inactive: 87%. For `CCOc1ccc2[nH]c(=O)c(CN(CCOC)C(=O)Nc3ccccc3C)cc2c1`, the survival was inactive: 115%. With `Cc1ccc(CN(C(=O)c2ccc(C(C)(C)C)cc2)c2ccccn2)o1` the survival was inactive: 86%. In the case of `COc1ccccc1NC(=O)CSc1ncc2c(n1)-c1ccccc1N(Cc1ccccc1C)S2(=O)=O`, the survival is reported as inactive: 75%. In the case of `CC(C)CC(=O)Nc1ccc2nc(SCC(=O)N3CCc4ccccc43)sc2c1`, the survival is reported as inactive: 102%. For `CCOc1ccccc1CNC(=O)c1sc2ncccc2c1-n1cccc1`, the survival was inactive: 95%. For `Cc1nonc1C(=O)NCC(=O)O`, the survival was inactive: 91%. For `CCOc1cc(C2c3c(-c4cc(C)ccc4O)n[nH]c3C(=O)N2CCCOC(C)C)ccc1O` (configuration not stated), the survival was inactive: 105%. In the case of `COc1cccc(Cn2c(SCC(=O)N3CCN(c4ccc(F)cc4)CC3)nc3ccccc32)c1`, the survival is reported as inactive: 66%. With `O=C(COC(=O)c1cc(-c2cccs2)nc2ccccc12)c1ccc(F)cc1` the survival was inactive: 65%. In the case of `O=C(CSc1nnc(-c2ccc3c(c2)OCO3)o1)Oc1ccccc1`, the survival is reported as inactive: 85%.
